The whole screen tested about 310,000 compounds, of which about 14,000 (4.5%) showed an effect of 50% or more. The effect is printed as a negative number. This is one part of the list.
Each molecule was assayed against human ether-à-go-go-related gene (hERG) potassium channel (human, UniProt Q12809) (assay: primary screen, population patch clamp on CHO cells stably expressing hERG).
Sequence of human ether-à-go-go-related gene (hERG) potassium channel (Q12809 whole entry, looked up): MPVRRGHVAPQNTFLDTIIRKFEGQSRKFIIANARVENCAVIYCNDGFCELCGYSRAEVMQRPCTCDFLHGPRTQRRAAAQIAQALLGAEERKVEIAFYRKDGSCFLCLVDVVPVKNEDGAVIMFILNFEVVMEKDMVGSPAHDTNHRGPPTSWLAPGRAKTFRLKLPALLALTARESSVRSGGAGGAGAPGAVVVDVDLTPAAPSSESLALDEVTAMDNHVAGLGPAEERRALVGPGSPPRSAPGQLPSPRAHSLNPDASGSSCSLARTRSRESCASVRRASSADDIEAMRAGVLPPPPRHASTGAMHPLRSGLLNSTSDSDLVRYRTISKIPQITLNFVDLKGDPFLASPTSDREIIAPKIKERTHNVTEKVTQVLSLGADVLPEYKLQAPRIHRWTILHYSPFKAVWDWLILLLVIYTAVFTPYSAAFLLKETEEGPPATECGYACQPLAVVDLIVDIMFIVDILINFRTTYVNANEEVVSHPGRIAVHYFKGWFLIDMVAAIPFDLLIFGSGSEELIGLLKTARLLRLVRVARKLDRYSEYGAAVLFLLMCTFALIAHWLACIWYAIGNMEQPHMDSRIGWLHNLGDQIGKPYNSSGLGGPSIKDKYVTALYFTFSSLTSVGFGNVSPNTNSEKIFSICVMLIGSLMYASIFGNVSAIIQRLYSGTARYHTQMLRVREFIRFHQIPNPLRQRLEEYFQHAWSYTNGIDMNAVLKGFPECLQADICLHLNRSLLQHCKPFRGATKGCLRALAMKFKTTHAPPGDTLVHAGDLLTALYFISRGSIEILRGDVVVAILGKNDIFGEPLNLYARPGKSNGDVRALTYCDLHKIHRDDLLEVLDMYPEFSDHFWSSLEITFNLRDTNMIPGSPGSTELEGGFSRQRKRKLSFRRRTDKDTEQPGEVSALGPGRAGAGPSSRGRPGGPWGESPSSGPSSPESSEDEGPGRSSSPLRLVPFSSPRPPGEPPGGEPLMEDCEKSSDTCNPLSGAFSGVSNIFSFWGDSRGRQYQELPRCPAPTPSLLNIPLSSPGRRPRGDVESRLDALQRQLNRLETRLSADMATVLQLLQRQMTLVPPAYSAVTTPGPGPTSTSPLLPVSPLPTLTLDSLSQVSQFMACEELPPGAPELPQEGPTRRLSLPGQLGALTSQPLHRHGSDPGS
With O=C(NNc1c2ccccc2nc2ccccc12)c1ccc(Cl)cc1 the “hERG current change (%, negative = inhibition) at 10uM” value was 15.6%.
In the case of COc1ccc(S(=O)(=O)N2CCC(C(=O)NCc3ccncc3)CC2)cc1OC, the “hERG current change (%, negative = inhibition) at 10uM” value is reported as 26.1%.
For Brc1ccc(-c2csc(N/N=C/c3ccco3)n2)cc1, the “hERG current change (%, negative = inhibition) at 10uM” value was 16.4%.
Cc1c(C(=O)OCC(=O)Nc2ccc(S(N)(=O)=O)cc2)oc2c1ccc1ccccc12 was tested, and the “hERG current change (%, negative = inhibition) at 10uM” value was 21%.
For COc1ccc(C(=O)N/N=C/c2ccc(OC)c(CN3CCCc4ccccc43)c2)cc1, the “hERG current change (%, negative = inhibition) at 10uM” value was -11.9%.
For Cc1ccc(/C(=C\CN2CCCC2)c2ccccn2)cc1.Cl, the “hERG current change (%, negative = inhibition) at 10uM” value was -55.4%.
In the case of CCOC(=O)c1cc(C#N)c(NCc2ccccc2)nc1C, the “hERG current change (%, negative = inhibition) at 10uM” value is reported as 4.13%.
With CCOC(=O)N1CCC(NC(=O)c2ccc3c(c2)sc2nc(-c4ccc(OC)cc4)cn23)CC1 the “hERG current change (%, negative = inhibition) at 10uM” value was 11.8%.
In the case of O=C(Cn1c(-c2ccccc2)noc1=O)Nc1ccc(S(=O)(=O)N2CCOCC2)cc1, the “hERG current change (%, negative = inhibition) at 10uM” value is reported as -10.1%.
Cc1ccc(C(=O)NNC(=O)c2ccncc2)cc1[N+](=O)[O-] was tested, and the “hERG current change (%, negative = inhibition) at 10uM” value was 8.46%.
For Cc1ccc(N(Cc2cc3ccccc3[nH]c2=O)C(=O)c2ccco2)c(C)c1, the “hERG current change (%, negative = inhibition) at 10uM” value was 6.68%.
With Cc1ccc(S(=O)(=O)N2CCN(C(=O)c3ccccn3)CC2)c(C)c1 the “hERG current change (%, negative = inhibition) at 10uM” value was 20.1%.
For CCOc1ccccc1N1CCN(c2nc3ccccc3nc2C(C#N)C(=O)OC(C)C)CC1 (centres unmarked), the “hERG current change (%, negative = inhibition) at 10uM” value was 23.4%.
For N#Cc1ccccc1/C=N/Nc1nc(-c2ccccc2)c2cc(Br)ccc2n1, the “hERG current change (%, negative = inhibition) at 10uM” value was -67.4%.
CSCC[C@H](N)C(=O)N1CCC(C(=O)N[C@H](C(=O)NCc2ccccc2F)C(C)C)CC1 was tested, and the “hERG current change (%, negative = inhibition) at 10uM” value was 1.56%.
In the case of O=c1c2ccccc2ncn1-c1ccc([N+](=O)[O-])c(C(F)(F)F)c1, the “hERG current change (%, negative = inhibition) at 10uM” value is reported as -3.74%.
In the case of Cc1ccc(C)c(-c2ccc(=O)n(Cc3ccc(F)cc3Cl)n2)c1, the “hERG current change (%, negative = inhibition) at 10uM” value is reported as -1.58%.
For Cc1nc(N)sc1C(=O)NN, the “hERG current change (%, negative = inhibition) at 10uM” value was -9.12%.
For COC(=O)C1=C(c2cccc(OC)c2OC)C[C@@H]2CC[C@H]1N2C(=O)N1CCCC1, the “hERG current change (%, negative = inhibition) at 10uM” value was -2.67%.
Cn1cc(/C=C2\SC(=S)N(NC(=O)c3ccccc3Cl)C2=O)c2ccccc21 was tested, and the “hERG current change (%, negative = inhibition) at 10uM” value was 1.95%.
CCC(C(=O)Nc1cc(C(=O)Nc2cc(C)ccn2)ccc1Cl)c1ccccc1 (centres unmarked) was tested, and the “hERG current change (%, negative = inhibition) at 10uM” value was -5.73%.
In the case of Cc1oc(-c2ccc(Cl)cc2)nc1CS(=O)CC(=O)NC(C)c1ccccc1 (centres unmarked), the “hERG current change (%, negative = inhibition) at 10uM” value is reported as -45.8%.
With NNC(=O)c1ccc(-c2cccc([N+](=O)[O-])c2)o1 the “hERG current change (%, negative = inhibition) at 10uM” value was 23.4%.

Source: PMC4336329 (PLoS ONE, 2015)
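Note: peak tail current of the secondary pulse compared with the same well before compound.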
